Data as given in the supplement of paper PMC10126150.
Values marked as one replicate rest on one cluster of the flow cell; about a third of the high ones do not repeat.

System: ATP
Test: switch fluorescence ratio, 500 uM ATP over buffer (Cy3 cluster intensity, sum of 5 cycles each) (fold (ratio)); higher = stronger signal-on switching upon ATP binding; sequences stand for … in TCGTCGGCAGCGTCAGATGTGTATAAGAGACAGTTTTTTTTTTTTTTTTTTTTTTTTT…TC
Conditions: aptamer strand: ATP DNA aptamer (quencher-CACCTGGGGGAGTATTGCGGAGGAAGG + anchor), 100 nM annealed; ATP concentration: 500 uM; one replicate
In short: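 Five buffer/ATP imaging cycles were run on Cy3-labelled switching-strand clusters on a modified Illumina MiSeq flow-cell, with NaOH stripping and re-annealing between cycles. In each cycle, clusters annealed to 100 nM quencher-labelled ATP aptamer were imaged in selection buffer, then after 15 min with 500 uM ATP at 22 °C. Per cluster, the fluorescence ratio is summed target-cycle over summed buffer-cycle Cy3 intensity, averaged per switch-domain sequence. Only clusters within 100-1000 RFU were kept.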
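Further: ATP exposure 15 min at 22 °C before imaging.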

Sequence	switch fluorescence ratio
GCAGGGTTGA	0.996
TTGGGTCGAG	0.967
GGCGGCGTTT	1
TTATAGACGG	0.993
TACTTCTTAC	1.14
CAGACGACTA	1.19
TTGTTTAGAC	1.02
CCAGGCGTAG	1
GGGATTGGTA	0.978
CGCCCCACGC	1.14
GAAATCAATC	1.22
CTTTCCAGGT	1.04
TCGAACAACC	1.08
TAAGTTGCGG	0.971
ACGCTCGTGT	1.01
TGTTCATTGT	0.95
TGTCCCGATA	1.02
TTTTCGTCGT	1.01
CATCGCTAGT	1.05
GAGTCACAAA	0.974
TGGGCCAGGG	1.04
CGAAAATTGA	0.965
AGCCTTGGAC	0.991
ATAATGTCCC	0.993
TTTCCGGGAT	1.04
CAGTCCCTTC	1.05

Sequence	switch fluorescence ratio
GAGTTTATTT	1.01
AATGGGAGGA	1.05
TAGCGTATTT	0.991
CTGATTACCC	1.01
AAAATCTAGA	0.997
GATCTTTCCT	1.12
CTATCACCAA	1.05
CCAAAAAAGA	0.992
ATTGGTTGTC	2.52
TCGACATTGA	1.02
GGATCAATAT	1.03
CGGGGTGATC	1.01
TTCGTCGAAC	1.21
CCCACAAGCC	2.38
CAGGAGGTCC	0.996
TGGAGCGTCG	0.984
CCACGGGCTC	1.11
CGCGTGTCAT	1.06
GCGCCAGGAC	1.6
CCAGCTGTCT	1
GGACCTTTTT	0.996
CTAGCAAAGT	1.06
AGGTCTTGTG	0.995
GGGCAACGTA	0.898
AAGTATATTA	1.06
GAGTCCGTCG	0.981

Sequence	switch fluorescence ratio
ACCTTAAAAG	1
TTTCATCAGA	0.94
AAGTTGACGA	1.02
AGAAGCTAAC	1.31
GAGTATATCT	1.05
TGGTGGTTA	1.04
TTCGGTCGAA	0.952
CACTCTTGTT	0.989
GCTGAACCGT	1.01
ATAAGGCGGC	1.03
CTACTAGATA	1.01
AGAAGCGCC	0.995
AAAATTTGAT	1.02
TTCGTGATGG	1.02
ATGGCCCTGG	1.03
GCCGGACGCG	1.02
ACTTCCGGCT	1.08
TGCATGAGGA	1.01
CAACTTTTTT	1.03
TGAGTGTTAT	0.997
CCATAGGAAC	1.04
TGCCGGCTTG	1.01
TCAAAGATGG	0.986
CAAAATTCGA	1
GTAAGGGCAG	0.989
CCCGTGTTGA	1.02

Sequence	switch fluorescence ratio
TTCAAATATC	1.04
GGGATTCAGT	0.99
TTCACTTCA	0.991
GGAAATTGTT	0.942
ATGCTCTCGC	0.991
GTGACGGGAT	1.02
GGTGAAACGC	1.03
CTCCAACGG	1.05
CCACGCACGT	1.87
GATTTACGGC	1.05
GATAAAAGTA	0.97
GAGATGGCCT	0.972
TGAGGGCCCT	1.01
GATTCGCAGA	1.08
TAGTGTTAAG	0.986
TTAAATGGAC	1.07
ACCGATTGTG	1.02
AATGTGCCC	1.06
ATAAACTTG	1.06
GTAAATGAAA	1.04
TTGTATTATC	1.02
GCCTCGACGT	1.04
GGGATTGCA	1.01
GATGTAAGTC	0.979
GACTTCGGCC	1.02
GGGAAGTTCC	1.02

Sequence	switch fluorescence ratio
GCCTGCGCTA	4.18
TAGTTTTTGC	1.02
TTGTTCGAG	0.969
TTTAGGCGGA	1.04
CTGGCGGCGC	1.01
CATCGCTCAG	1.03
TAAGGTTACA	0.982
CGTGAGTGTT	0.967
TTCGGCTTCG	1.02
CTTAACTTCA	1.12
TTAAAGACCA	1.01
CGAGGTCCCG	1.03
ACAAGCTTGG	1
AAGCGCGCGG	0.97
TGTTTTTTAC	1.04
AAACGGTGTA	1
GAAATAAATG	0.93
CCGACTGAAG	1.05
TAGTGGTT	1.03
TATACGTTTA	1.01
AAAGAAGTTA	0.982
AACCCTATCC	1.6
CGCCTGCGGG	0.997
TGGCTGCGCC	1.01
CGGGTATATA	1.03
GACGCAGTCA	1.01

Sequence	switch fluorescence ratio
GTTGCGGTGG	1.02
TGGCCCGTTC	0.999
CGTAGGACTC	1.07
CGGTAATTTA	1.01
TGATATGATA	0.983
CGACAGTTTT	0.988
TCGAGGTCA	1.03
AGCCTGCACT	1.05
GCTGTTATCA	1.04
GTATCTCCTG	1.06
GCAAGGGACT	1.02
CGGAATGTAG	0.986
TGCCGAGGC	0.986
GGGCTTCAAA	1
CGGGTAAAAA	0.995
TTCTTGCGAA	1.02
TGTCATCAAG	1.02
AGGCCCATCG	1.04
GTCCCATAT	1.03
ATCGCGGCTT	0.966
TTTCCCCGGT	1.1
TAGCCATTAG	0.94
AAGTCCAAGG	1.02
